B1: chr11:64204363:64204470:+|3pUTR|ENSG00000168439|unk|total|mutant (ssRNA)
RNA: GGGAGUUCUACAGUCCGACGAUCGCCCUCGAGUUCCAUGUCUCUUUCCCCUGCCCCCCGUUGCUGUCUCGGCUGCUCUCCCACCGUUGGUUUUUUUUUUAUUUGGGGCAGUGGGCAUGUUAUGGGGAGGGGAGGGGGUUCUUCCAACAGAGGAUUGAGCAUCA
B2: chr1:225789428:225789553:+|3pUTR|ENSG00000143742|unk|FALSE|unique (ssRNA)
RNA: GGGAGUUCUACAGUCCGACGAUCUUAGAGAAAGUGUUGGGACAGAAAGUACUUUAUGUAACUAAGUGGGCUGUUCAGAAGCUUAGAGGUCAUUUUUUGUAAUUUUCUUUUUAAUUACUUUAGAGAGCUAGGGAUGCAAAUGUUCAACAGAGGAUUGAGCAUCA
B3: ENSG00000130816:stop:overlap|stop_codon|ENSG00000130816|stop_codon|NA|stop_codon (ssRNA)
RNA: GGGAGUUCUACAGUCCGACGAUCUGGCCAAAGCCCGAGAGAGUGCCUCAGCUAAAAUAAAGGAGGAGGAAGCUGCUAAGGACUAGUUCUGCCCUCCCGUCACCCCUGUUUCUGGCACCAGGAAUCCCCAACAUGCACUGAUGUCAACAGAGGAUUGAGCAUCA
B4: chr2:53865134:53865235:-|3pUTR|ENSG00000068878|unk|total|mutant (ssRNA)
RNA: GGGAGUUCUACAGUCCGACGAUCGUCCUGUCAUUUCAUUCAUCUCAAAUUAUUUUGAAUUCUUCCCAAAUGGCUGCUGGAUUCCGGUGGUAACCGGGGCUGUGGGCCAUAAAUCUGAAGCCUUGAGAACCUUGGGUCUGGAGACAACAGAGGAUUGAGCAUCA
B5: chr11:85659139:85659240:-|3pUTR|ENSG00000137504|msi1|total|mutant (ssRNA)
RNA: GGGAGUUCUACAGUCCGACGAUCGUCUGAUUCCGUAAAAUUUUAAAGCUAAAUAAUCUGAUGACUCUUGAAAGUUUAAUUGGCCGUAUGACAUUUAUGUUUUUUUCCCCCAGACUCACAGCCAAUACAAAGUUUUGAGACUCCCAACAGAGGAUUGAGCAUCA
B6: chr11:104891169:104891404:-|CDS|ENSG00000204403|control|control|control (ssRNA)
RNA: GGGAGUUCUACAGUCCGACGAUCUUUGCUGCUCACCCAGAGCACCAGUCCUCAGACAGCACAUUCCUGGUGUUUAUGUCACAUAGCAUCCUGAAUGGAAUCUGUGGGACCAAGCACUGGGAUCAAGAGCCAGAUGUUCUUCACCAACAGAGGAUUGAGCAUCA

The other results are listed elsewhere or left out.

The target in this assay is MSI1 full-length (mouse, UniProt Q61474 1-362). As to the kind of experiment: nsRBNS (natural sequence RNA bind-n-seq); RBNS binding buffer (assumed for nsRBNS): 25 mM Tris pH 7.5, 150 mM KCl, 3 mM MgCl2, 0.01% Triton X-100, 500 ug/ml BSA, 20 U/ml SUPERase-In, 4 C; UNK is unkempt and MSI1 is Musashi-1; names of the RNAs are library labels; protein concentration not given here; high values mean tight binding.
UniProt Q61474, sequence (Q61474 whole entry): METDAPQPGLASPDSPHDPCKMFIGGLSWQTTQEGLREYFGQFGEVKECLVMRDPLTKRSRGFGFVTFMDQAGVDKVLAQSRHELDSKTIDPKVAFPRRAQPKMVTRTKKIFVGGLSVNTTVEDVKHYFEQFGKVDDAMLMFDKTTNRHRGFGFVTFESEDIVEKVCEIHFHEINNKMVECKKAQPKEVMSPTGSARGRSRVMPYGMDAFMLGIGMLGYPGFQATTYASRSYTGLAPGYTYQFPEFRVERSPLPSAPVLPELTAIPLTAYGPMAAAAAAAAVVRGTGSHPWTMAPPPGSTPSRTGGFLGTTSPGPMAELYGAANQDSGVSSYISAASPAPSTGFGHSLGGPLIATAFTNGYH
B1: the binding signal was 0.741 enrichment R.
B2 showed a binding signal of 1.67 enrichment R.
For the molecule B3, the binding signal stood at 4.63 enrichment R.
The same measure for B4: 0.372 enrichment R.
Next, B5: 0.888 enrichment R.
The same measure for B6: 0.277 enrichment R.

For the origin of these results see publication PMC12136788.
